# Measured values as given in the supplement of paper PMC3694890.
# ± gives the uncertainty stated by the source. The list shows a part of the results. Phosphotyrosine is written y.
# Target: GRB2 (endogenous complexes from cell lysate), P62993
# Experiment: GRB2 complex binding differential signal (pY peptide minus Ala control peptide) (fluorescence intensity units); higher = stronger GRB2 complex binding
# 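Note: phosphopeptide probes on the chip at 1–4 µM, lysate proteins bound in 20 mM Tris pH 7.0 buffer with 140 mM NaCl, 1% Triton X-100 and 5% glycerol.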
Binder,GRB2 complex binding differential signal (MCF7),GRB2 complex binding differential signal (MCF10A),GRB2 complex binding differential signal (MDA-MB-231),GRB2 complex binding differential signal (T47D)
yKPDTP [PKN2_624/A1],3420 ± 550,2250 ± 610,664 ± 280,486 ± 1300
ySGIQE [PKN2_635/A1],924 ± 190,681 ± 230,1190 ± 360,1950 ± 1100
yGDRTS [PKN2_810/A1],1230 ± 360,1320 ± 760,462 ± 500,560 ± 1200
yQQPFE [PLCG1_1253/A1],2630 ± 580,1100 ± 310,1140 ± 370,1980 ± 1200
yHGHTL [PLCG1_379/A1],-146 ± 250,189 ± 260,367 ± 370,412 ± 950
yEEVPT [PLCG1_472/A1],1680 ± 300,2140 ± 960,1340 ± 500,1360 ± 1700
ySENDI [PLCG1_481/A1],11600 ± 7300,561 ± 270,1080 ± 400,2200 ± 1600
yPHYFV [PLCG1_506/A1],120 ± 360,-16 ± 140,130 ± 280,76.8 ± 920
yGALYE [PLCG1_771/A1],-87.7 ± 210,185 ± 150,470 ± 260,508 ± 970
yVNMDE [AXL_821/A1],18700 ± 3500,12500 ± 2500,6540 ± 1100,11800 ± 3200
yEGRNP [PLCG1_775/A1],2810 ± 790,2300 ± 510,560 ± 380,783 ± 1700
yVEANP [PLCG1_783/A1],2300 ± 370,1960 ± 1400,1010 ± 380,934 ± 940
yRDMSS [PLCG1_977/A1],1240 ± 340,791 ± 360,933 ± 440,2660 ± 1400
ySSCRQ [PLCG2_1197/A1],2820 ± 860,1200 ± 280,467 ± 320,720 ± 3200
yDTHQN [PLCG2_1217/A1],1360 ± 430,1510 ± 480,872 ± 510,190 ± 970
yQEKCN [PLCG2_1245/A1],820 ± 310,673 ± 320,569 ± 320,191 ± 950
yPVTPE [PLCG2_733/A1],211 ± 560,840 ± 540,462 ± 380,94.4 ± 950
